Hit rate of the full screen: of about 46,000 compounds, about 60 (0.1%) were called active. Inconclusive results (about 3%) are left out. Calls follow the shape of the dose curve; as a rule, active = well fitted inhibition curve with a large enough effect; inconclusive = small, poorly fitted or top-dose-only effect; inactive = no such curve, though single readings can be large or run the other way. Some of the results follow.
Assay: Primary qHTS assay for Inhibitors of ovarian cancer metastasis using an organotypic tumor microenvironment (TME) model. Also: nearly all actives have a fitted effect of over 65% in size.
Settings: SKOV3ip1-GFP adhesion/invasion on 3D omental model, fluorescence; series mostly up to 45.8 µM; activity change, negative = inhibition: at the top concentration
Text: PI: Ernst Lengyel MD., Ph.D. Department of Obstetrics and Gynecology, Section of Gynecologic Oncology University of Chicago Medicine, Chicago, Illinois. The tumor microenvironment (TME) is a key determinant of metastatic efficiency. We performed a quantitative high-throughput screen (qHTS) of diverse medicinal chemistry tractable scaffolds (44,420 compounds) and pharmacologically active small molecules (386 compounds) using a layered organotypic, robust assay representing the ovarian cancer metastatic TME. This 3D model contains primary human mesothelial cells, fibroblasts, and extracellular matrix, to which fluorescently labeled ovarian cancer cells are added. Initially, 100 compounds inhibiting ovarian cancer adhesion/invasion to the 3D model in a dose-dependent manner were identified. Of those, eight compounds were confirmed active in five high-grade serous ovarian cancer cell lines and were further validated in secondary in vitro and in vivo biological assays. […] Specifically, NCGC00117362 and PP-121 inhibited ovarian cancer adhesion, invasion, and proliferation, whereas milciclib inhibited ovarian cancer invasion and proliferation. […] To evaluate the clinical potential of NCGC00117362, structure - activity relationship studies were performed. […] The three compounds identified have promise as therapeutics for prevention and treatment of ovarian cancer metastasis.
PROTOCOL TABLE (as described by Inglese J, Shamu CE and Guy RK. 2007) SEQUENCE No. (e.g., 1, 2, 3, etc.); […] (e.g., Cells, Incubation, Reagent, etc.); VALUE; DESCRIPTION. 1; Cells; 4 uL; primary human omental fibroblast, black, clear bottom, low base, 1536-well Aurora assay plate. 2; Incubation; 48 hr; 37C. 3; Cells; 3 uL; 1,200 SKOV3ip1-GFP cells. 4; Compounds; 23nL; acoustic dispenser. 5; Incubation; 2 hr; room temperature. 6; Incubation; 16 hr; 37C. 7; Wash; 5 uL; 1x PBS. 8; Fixing; 5 uL; 4% paraformaldehyde (PFA). 9; Incubation; 15 min; room temperature 10; Wash, 5 uL; 1x PBS. 11; Detection; Fluorescence, excitation filter 488 nm, emission filter 509 nm. NOTES (numbers refer to Sequence numbers above) 1. For the 1,536-well format, 40 primary human omental fibroblasts and 400 mesothelial cells were seeded with 0.02 µg fibronectin and 0.02 µg collagen type I in 4 µL of growth media (2.3 mm2; Supplementary Fig. S1A). 2. Assay plates were incubated for 48 hours at 37 C. 3. After incubation, 1,200 SKOV3ip1-GFP were seeded in 3 µL of serum-free media (growth media minus FBS) on top of primary human omental cells. 4. Compounds or controls were added to each well immediately after the addition of the cancer cells. Compounds were screened in four doses (0.36-46 µmol/L), and the plates contained the positive control (Tomatine) in eight doses (0.035-75 µmol/L) and DMSO (equal volume controls) 5 - 6. The plates were incubated at room temperature for 2 hours and then at 37 degrees C for 16 hours. 7 - 10. Following incubation, the media were aspirated and each well washed with PBS (5 µL) and then fixed with 4% paraformaldehyde (PFA; 5 µL). After 15 minutes, the PFA solution was aspirated, PBS (5 µL) was added. 11. The number of GFP-labeled cells analyzed using a fluorescent cytometer TTP LabTech Acumen eX3 using 488 nm excitation filter and 509 nm emission filter. Data was normalized to the DMSO treated for negative and Tomatine treated wells for positive control. REFERENCES: Inglese J, Shamu CE and Guy RK, Reporting data from high throughput screening of small molecule libraries, Nature Chemical Biology, 2007, 3(8): 438-441. doi.org/10.1038/nchembio0807-438. Yasgar A, Shinn P, Jadhav A, Auld DS, Michael S, Zheng W, Austin CP, Inglese J and Simeonov A, Compound Management for Quantitative High-Throughput Screening. J. Assoc. Lab. Auto., 2008, 13: 79-89. doi: 10.1016/j.jala.2007.12.004.

SMILES | outcome | activity change, negative = inhibition
Cc1cccc(-n2c(SCC(=O)Nc3ccccc3Cl)nc3n[nH]c(C)c3c2=N)c1 | inactive | 
Cn1nc(-c2ccccc2)c(-c2ccccc2)c(C(=O)Nc2ccc(S(N)(=O)=O)cc2)c1=O |  | inactive: 0.568%
COc1cccc(C(=O)Nc2ccc3nc(SCc4ccc(C)cc4)sc3c2)c1 |  | inactive: 6.69%
O=C(NCC(c1cccnc1)N1CCOCC1)C(=O)Nc1cccc(Cl)c1 (centres undefined) |  | inactive: 6.48%
CSc1ccc(CCNC(=O)c2sc3ncccc3c2-n2cccc2)cc1 |  | inactive: 4.6%
CCOc1ccc(NC(=O)CN2C(=O)CCSc3ccc(S(=O)(=O)N4CCCC4)cc32)cc1 |  | inactive: 6.22%
COC(=O)c1ccc(NC(=O)N2CCc3c([nH]c4ccccc34)C2c2ccc(C)cc2)cc1 (centres undefined) |  | inactive: -20.1%
COc1cccc(-n2cc(C(=O)NCCc3cccc(C)c3)c3ccccc3c2=O)c1 |  | inactive: -0.776%
Cc1ccc(C)c(N2CCN(C(=O)C(C)n3nc(C)c4sc5ccccc5c4c3=O)CC2)c1 (centres undefined) |  | inactive: -3.4%
COc1ccc(Cn2c(=O)c3oc4ccccc4c3n(CC(=O)Nc3cc(C)cc(C)c3)c2=O)cc1 |  | inactive: -4.71%
CCC1CCCCN1CCCNC(=O)c1ccc2c(c1)N(Cc1cccc(C)c1)C(=O)c1ccccc1S2(=O)=O (centres undefined) | inactive | 
Cc1c2cnn(CC(=O)NCCc3ccccc3)c(=O)c2c(C)n1Cc1ccccc1Cl |  | inactive: 7.33%
COc1ccccc1CNC(=O)C1CCN(c2nn3c(=O)cc(C)nc3s2)CC1 | inactive | 
O=C(O)c1ccc(-n2nc(-c3ccccc3O)nc2-c2ccccc2O)cc1 |  | inactive: -4.57%
O=C(NCc1ccccc1Cl)C(=O)NCC(c1ccco1)S(=O)(=O)c1cccs1 (centres undefined) |  | inactive: 3.52%
CCc1ccccc1NC(=O)CSc1nc2c(oc3ccccc32)c(=O)n1-c1ccccc1 | inactive | 
Cc1ccc(-c2nc3ccc(Br)cn3c2Nc2ccc3c(c2)OCO3)o1 |  | inactive: -15.1%
O=C(COc1ccccc1F)NC1CC(=O)N(c2ccc3c(c2)OCCO3)C1 (centres undefined) |  | inactive: 11.4%
CC(=O)c1ccc(NC(=O)CN2C(=O)c3cccnc3Sc3ccccc32)cc1 | inactive | 
CCc1ccc(NC(=O)CSc2nc(=O)n(Cc3cccnc3)c3c2CCC3)cc1 |  | inactive: 8.28%

SMILES | outcome | activity change, negative = inhibition
COc1ccc(/C=C(\C#N)c2nc(-c3ccc(Cl)c(Cl)c3)cs2)cc1OC |  | inactive: -4.59%
COc1cc(C(=O)NCC(c2ccc(N(C)C)cc2)N2CCCC2)cc(OC)c1OC (centres undefined) | inactive | 
CCOc1ccc(NC(=O)CSc2nc3nc(C)c(Cc4ccccc4)c(C)n3n2)cc1 |  | inactive: -5.55%
CC(=O)c1cccc(NC(=O)Cn2cnc3c2c(=O)n(C)c(=O)n3C)c1 |  | inactive: -5.22%
COc1ccc(-n2c(CCC(=O)O)ccc2-c2ccccc2)cc1 |  | inactive: 2.91%
CCOC(=O)c1cccc(NC(=O)Cc2ccc(NC(=O)N3CCCCc4ccccc43)cc2)c1 |  | inactive: 5.73%
CCC(=O)N1CCc2cc(Br)cc(S(=O)(=O)N3CCCC(C(=O)Nc4ccc(CC)cc4)C3)c21 (centres undefined) |  | inactive: 0.615%
CCOc1ccccc1CNS(=O)(=O)c1cnc(N)nc1 |  | inactive: -18.7%
COc1ccccc1Cn1c(CNS(=O)(=O)c2ccc(Cl)s2)nc2cccnc21 |  | inactive: -4.45%
CCOC(=O)c1ccc(N2CCN(c3cccc(Cl)c3)CC2)c(NC(=O)Nc2ccc(Cl)cc2)c1 |  | inactive: -0.103%
O=C1Nc2c(c(=O)[nH]c(=O)n2-c2ccc(Cl)cc2)C1(NS(=O)(=O)c1ccccc1)C(F)(F)F (centres undefined) |  | inactive: -9.43%
Cc1ccc(C)c(NC(=O)CCn2cnnn2)c1 |  | inactive: -8.01%
O=C(Nc1ccccc1C(=O)OCc1cc(=O)n2c3c(sc2n1)CCCC3)c1ccc(Cl)cc1 |  | inactive: -5.45%
Cc1nnc(N2CCN(c3ccccc3)CC2)c2c1nnn2Cc1ccc(F)cc1 |  | inactive: 9.59%
CCOC(=O)c1[nH]c(C)c(CCC(=O)N2CCN(c3cc(Cl)ccc3C)CC2)c1C |  | inactive: -11.5%
CCOC(=O)c1c(C)[nH]c(C)c1S(=O)(=O)N1CCCC(C(=O)N2CCN(c3ccc(Cl)cc3)CC2)C1 (centres undefined) |  | inactive: 3.16%
CCCCOC(=O)c1ccc(NC(=O)c2ccc3c(c2)CCN3S(=O)(=O)c2ccccc2)cc1 |  | inactive: -0.147%
O=C(Nc1ccc(F)cc1F)c1ccc(-c2ccccc2)s1 | inactive | 
Cc1cnc2c(c1SCC(=O)N(C)c1ccccc1)c(=O)n(C)c(=O)n2C |  | inactive: 0.531%
CCCC(=O)Nc1ccc2nn(-c3ccc(CC)cc3)nc2c1 | inactive | 

SMILES | outcome | activity change, negative = inhibition
O=C(CCCn1c(=O)c2sccc2n(Cc2c(F)cccc2Cl)c1=O)NCc1ccccc1 |  | inactive: 2.22%
Cn1c(=O)c2c(-c3ccccc3Br)n(C(C)(C)C)cc2n(C)c1=O |  | inactive: 6.56%
CCOC(=O)CSc1nc2sc3c(c2c(=O)n1CC)CCCC3 |  | inactive: 3.13%
COc1ccc(C2CC(=O)c3cc(-c4nc(-c5cccc([N+](=O)[O-])c5)cs4)c(=O)n(-c4cc(C)cc(C)c4)c3C2)cc1 (centres undefined) |  | inactive: 8%
COc1ccc(C)cc1N(CC(=O)N1CCC(C)CC1)S(=O)(=O)c1ccc(C)cc1 |  | inactive: -3.43%
Nc1c(C(=O)c2ccc3c(c2)OCO3)sc(Nc2ccccc2F)c1S(=O)(=O)c1ccccc1 | inactive | 
Cc1ccc2nc(CSc3nnc(NC(=O)COc4ccccc4F)s3)cc(=O)n2c1 | inactive | 
Cc1cccc(-c2noc(CN(C(C)C)S(=O)(=O)c3ccc(Br)cc3)n2)c1 | inactive | 
Cc1c(-c2nc(-c3ccc4c(c3)[nH]c(=O)n4C)no2)cccc1[N+](=O)[O-] |  | inactive: 40.3%
CC1(C)CC(=O)c2cc(-c3nc(-c4ccc(Br)cc4)cs3)c(=O)n(-c3ccccc3)c2C1 | inactive | 
COc1ccccc1N1CCN(C(=O)c2ccc3c(c2)N(Cc2ccccc2)C(=O)c2ccccc2S3(=O)=O)CC1 |  | inactive: -3.95%
Cc1cccc(NC(=O)Cn2nc(C)c3nn(-c4ccc(Cl)cc4)c(C)c3c2=O)c1C |  | inactive: -21.3%
Cc1cc(C)cc(NC(=O)CSCc2cc(=O)c3cc(Cl)ccc3[nH]2)c1 |  | inactive: -0.535%
Cc1ccc(N2CCN(Cc3nnc(-c4ccc5c(c4)OCO5)o3)CC2)c(C)c1 |  | inactive: 0.827%
COc1ccc(-c2cc(C(F)(F)F)n3nc(-c4ccc(Cl)cc4)cc3n2)cc1OC | inactive | 
COCCNC(=O)CSc1nc2cc3c(cc2c(=O)n1CCCCCC(=O)NCCc1ccc(OC)c(OC)c1)OCO3 |  | inactive: 7.31%
Cc1cccc(N2C(=O)CSC23C(=O)N(CC(=O)NCCc2ccccc2)c2ccccc23)c1 (centres undefined) | inactive | 
O=C(CSc1nnc(-c2cccs2)o1)Nc1cccc(C(F)(F)F)c1 |  | inactive: -8.67%
CN1C(C(=O)Nc2ccccn2)=C(O)c2ccccc2S1(=O)=O |  | inactive: -27.2%

Reference: PubChem BioAssay AID1963576 (National Center for Advancing Translational Sciences (NCATS), 2024)
